Patent US20090176702A1 (published 2009)

Target: T1, TNFα (of the treated mice) (mouse, UniProt P06804 80-235, limits assumed)
T1 sequence (looked up): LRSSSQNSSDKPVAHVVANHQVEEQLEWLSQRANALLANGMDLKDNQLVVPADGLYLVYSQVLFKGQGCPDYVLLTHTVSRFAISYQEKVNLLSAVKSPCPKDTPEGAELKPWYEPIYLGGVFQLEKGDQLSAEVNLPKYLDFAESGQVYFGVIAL
Assay: cell-based or functional assay

IL-6 mRNA level in liver (real-time PCR), decrease as compared with the control group: 78.3%
MIP-2 mRNA level in liver (real-time PCR), decrease as compared with the control group: 72.1%
bcl-xL mRNA level in liver (real-time PCR), decrease as compared with the control group: 77.3%
B1: long-acting recombinant human soluble tumor necrosis factor α receptor (LHusTNFR) type II in the form of HusTNFR type II-IgG1:Fc (Fc fusion)
chain: LPAQVAFTPYAPEPGSTCRLREYYDQTAQMCCSKCSPGQHAKVFCTKTSDTVCDSCEDSTYTQLWNWVPECLSCGSRCSSDQVETQACTREQNRICTCRPGWYCALSKQEGCRLCAPLRKCRPGFGVARPGTETSDVVCKPCAPGTFSNTTSSTDICRPHQICNVVAIPGNASMDAVCTSTSPTRSMAPGAVHLPQPVSTRSQHTQPTPEPSTAPSTSFLLPMGPSPPAEGSTGD[sequence of human IgG1 Fc with K326L (EU numbers) omitted]
